Reference: the supplement of paper PMC11417369
± gives the standard deviation of the averaged measurements. The list shows a part of the results.

test system: PfAP2-I AP2 domain 3 (GST-tagged); assay: gcPBM binding intensity (ln(normalized median fluorescence intensity)); higher = stronger DNA binding
Procedure, shortened: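 DNA-binding domains from P. falciparum, fused to GST and produced in E. coli, were put on an Agilent 4 × 180k double-stranded probe array for 1 h in 1× PBS holding 1% milk, 0.2 mg/ml BSA, 0.5% salmon testes DNA and 0.03% Triton X-100. Probes were primer-extended, 36 bp long and drawn from intergenic genomic regions, with negative controls included. After Alexa488 anti-GST antibody detection and a 488 nm scan, binding intensity was set as the highest Masliner-normalised natural-log median intensity across replicate spots of either probe orientation.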

In order of rising “gcPBM binding intensity (ln)” value:
1. TTAAAACATATTTTGAATTAATATATTTTAATATTA [XGTACX_negctrl_site148]  7.08 ± 0.43
2. AAAAAAAAAAAGAACTCACACATAATAATGTATATG [CACACA_site4974]  7.26 ± 0.51
3. ATTATAAATATAAATATAAATATATATTGTTCCGCA [TGCATGCA_negctrl_site470]  7.28 ± 0.5
4. AAAGGAGACAGAATAAGAATAAATATTATACATATA [XGTACX_negctrl_site412]  7.3 ± 0.42
5. TAATAAACAAATTCCAAAATAAATTAAAAGGAAAAT [CACACA_negctrl_site1404]  7.35 ± 0.59
6. AAAAAAAATCAGACAGGTACACATTCCATGTTCAAA [XGTACX_site5380]  7.38 ± 0.63
7. TTTATATTTATATAAATATAATATATATGAATTATA [XGTACX_negctrl_site466]  7.43 ± 0.21
8. TATTATAAATTAATTTTAAACTTTATTATTATGATA [GTGCAC_negctrl_site389]  7.48 ± 0.27
9. AATATAATGTAATATACACACATATATTTCTCTTTT [CACACA_site5451]  7.48 ± 0.61
10. TATAATATATATGTAACACACAAAAGTTATATACTT [CACACA_site2868]  7.54 ± 0.55
11. ATTAAAATAATATAAACACACATATACTTTTTTCTA [CACACA_site565]  7.55 ± 0.38
12. ATGCATAAAAGAAATACACACATAAATATGTAAATA [CACACA_site7087]  7.61 ± 0.42
13. AAGAGGTTATTACATTCACATAACATCAATATACGT [GTGCAC_negctrl_site264]  7.62 ± 0.69
14. TTTTATCTCATTCATCAAAATCACCGGAATCATATA [CACACA_negctrl_site357]  7.62 ± 0.49
15. TTAATCATAAAAGTCACACATAATAAGAAAAAGCTT [CACACA_site4616]  7.62 ± 0.73
16. AAAAATTTATTTTTAGGTACACAATTGAATTATTTA [XGTACX_site7008]  7.62 ± 0.15
17. CTTCAATATATTCTTACACACTTAAAAAAAAAAATA [CACACA_site4287]  7.64 ± 0.5
18. CTATTATTTTTAAATTGTACTATAACAAAATGTATA [XGTACX_site3916]  7.64 ± 0.29
19. ATATAAGTTTATATATGTACATATATATATTATATA [XGTACX_site2068]  7.65 ± 0.35
20. ATTATAAATAAAATATGTACATATGTATAAATACAT [XGTACX_site4002]  7.65 ± 0.34
21. TTAAAAATGTTATAATGTACATATAATATTTTATGA [XGTACX_site5954]  7.66 ± 0.4
22. TACATATTTTTTATATGTACATATTTTTTATGTGTA [XGTACX_site442]  7.67 ± 0.18
23. ACAAAAATATATATATGTACATATATCATCATAATA [XGTACX_site5850]  7.68 ± 0.45
24. TTAGATATGTGTAAGGGTACAAAATACTTTACATTT [XGTACX_site8204]  7.69 ± 0.73
25. TTTATTAGAACCGTACGTACATAGTTATTTTTTCAA [XGTACX_site8848]  7.69 ± 0.51
26. AAAAAAAACAGACACACACACAAATATTTATATATC [CACACA_site6342]  7.69 ± 0.55
27. ATAATAAAAAAAAAATGTACATAAATCTAAAATCCT [XGTACX_site5823]  7.71 ± 0.54
28. CAATTAAAAAATAATACATGCATATAAATAGATATT [TGCATGCA_site427]  7.72 ± 0.49
29. AATATATGAATTAGAAGTACAAATAAATATTTATTT [XGTACX_site2062]  7.78 ± 0.64
30. TGGGAAAACCCCAGAAGTACGCTTAATATAAAAAAT [XGTACX_site697]  7.79 ± 0.54
31. TTAAAATTATATCTGTGTACATAAATTGTGTAACTA [XGTACX_site1966]  7.79 ± 0.18
32. CATTAATATATATATAGTACATATACACCTTCATTA [XGTACX_site8473]  7.8 ± 0.47
33. TATTAGTCGAATGATGTACACACATACAAAACATTT [CACACA_site9331]  7.82 ± 0.52
34. AATTAAAAATATAAATGTACATATATGTAAAACTTT [XGTACX_site123]  7.86 ± 0.56
35. CCACATTTTACAGACACACACAATTTATATTACGGT [CACACA_site1894]  7.86 ± 0.46
36. AAAACACATACTATATGTACATATAATAATTTATAT [XGTACX_site4525]  7.86 ± 0.44
37. ATTTAAAAAAAAATGGCACACATTTTAATTTTATGT [CACACA_site1740]  7.88 ± 0.37
38. ATATATTTAAATAAAAGTACGTAAAGGTATATTTAA [XGTACX_site8088]  7.91 ± 0.56
39. AATACAATTTATAACACACACACAATAATACATATA [CACACA_site1252]  7.92 ± 0.35
40. ATAATTAAATAAAAAAGTACACATACATCATAATGC [XGTACX_site7656]  7.93 ± 0.42
41. TATGCTATAATACTCTGTACTTACTAATTTAATAAT [XGTACX_site5926]  7.96 ± 0.22
42. TGTAGTCTGGAGAAAAGTACATAGTATCTGATAACC [XGTACX_site2018]  7.96 ± 0.54
43. AAATAAATCTATAATACACACAAAAATATAAAATGC [CACACA_site7700]  8.01 ± 0.67
44. TAAGAATACGAAAGGTGTACACTGTGGAGACTTCAA [XGTACX_site2619]  8.03 ± 0.59
45. ATAATGTTCCTATGATGTACTTATAATTATCATTTT [XGTACX_site4017]  8.07 ± 0.44
46. TTGTGTCATATATTTTGTAATCAAAATAATTTTATT [TGCATGCA_negctrl_site307]  8.08 ± 0.41
47. ATAAAATAAATGAAAAATGTAAAATGAGAAAAAAAT [CACACA_negctrl_site1026]  8.09 ± 0.57
48. TTTCTATATTGGCATACATGCAAGAACGAAAAGATT [TGCATGCA_site117]  8.1 ± 0.64
49. ATATATATGTTTTATAGTACACACATAAATGGACAT [XGTACX_site4538]  8.1 ± 0.49
50. TTTTTAATGATCAGACGTACAGTTATGAAGAAATTT [XGTACX_site6394]  8.13 ± 0.52
51. ATATACACATAAAGTAGTACACCTGAAATTTTTTTT [XGTACX_site2951]  8.13 ± 0.26
52. GAGGATATATTATATGTACACACATATATAACGGAT [CACACA_site8361]  8.13 ± 0.45
53. TTTATCCTTCTTTTGAGTACTCAAAGAGACCTATAA [XGTACX_site8050]  8.13 ± 0.35
54. TATATTATATTATACATACACACCCATATAATATGT [CACACA_site869]  8.14 ± 0.64
55. AATTCATTTAAAAGTTGTACAAGCTTAATAAAAAAA [XGTACX_site6073]  8.14 ± 0.65
56. TTTTAATTAAATACAAAAAAAAAAAAAAAAAAAAAA [CACACA_negctrl_site1631]  8.14 ± 0.91
57. TAGCGTACATTTCATTGTAATCATAAAAAATAAAGA [CACACA_negctrl_site447]  8.17 ± 0.085
58. GTAATGTCGTCGTTTTGTACATATTTTTATAAAAAG [XGTACX_site2688]  8.18 ± 0.54
59. TTTTTGTTTCGTTACGCATGCCAAAAGTAAAAATAT [TGCATGCA_site536]  8.2 ± 0.56
60. TTTACACTTTTTTTTGTACACACTAATAAGATTAAC [CACACA_site9304]  8.2 ± 0.39
61. TTGCACTCGTAAAAAGCACACATATAAAAACATTTA [CACACA_site7997]  8.26 ± 0.071
62. TAAACATACCTATACACACACACACGCACACGCACA [CACACA_site6372]  8.27 ± 0.4
63. GTTTGTATAGGTTCATGTACAAAAAAAAAAAAAAAA [XGTACX_site537]  8.27 ± 0.46
64. GTATTTTTTTTAATATGTACATATAAAATATTTTAT [XGTACX_site8329]  8.28 ± 0.23
65. TTTAAAACCCTAAAAAAAAAAAAAAAAAAAAAAAAA [CACACA_negctrl_site1212]  8.29 ± 1
66. ATAACTTGTATATATACACACACACCCTTTCTTTTT [CACACA_site8600]  8.3 ± 0.71
67. ATTCATATGTGACACACACACACACGCATAAAAAAA [CACACA_site7515]  8.34 ± 0.39
68. TAAAAATTGCACAGAAGTACAGTATAAATATATATA [XGTACX_site3421]  8.37 ± 0.38
69. AAGAAAAAAAAAAAAAAAAAAAAAAAAAAAAAAAAA [TGCATGCA_negctrl_site263]  8.38 ± 0.89
70. CCTCCCATTTTTACACGTACACATTTAAAATAGACT [XGTACX_site5640]  8.46 ± 0.52
71. AAGAGTTTGAAGTTTGCACACTACGTTAAAAATAAA [CACACA_site3939]  8.56 ± 0.28
72. ATTTTATCATAATAAAGTACAAAGATGCAAATAATA [XGTACX_site2270]  8.66 ± 0.085
73. TATATAATAACATATGCATGCAAGTAATATAACCAA [TGCATGCA_site324]  8.72 ± 0.54
74. TGAAGAAAATATTAATGTACATATTATATATATATA [XGTACX_site5497]  9.06 ± 0.16
75. TATATATATATATATATATATATTTTTATTATATAT [XGTACX_negctrl_site89]  9.2 ± 0.68
76. AAAATAAATATAAAATGTACTTATATATATATATAT [XGTACX_site7803]  9.24 ± 0.4
77. TATTGTTCGTTTAAGGTGCTATTGTTTGCAAAATAT [GTGCAC_site9412]  9.465 ± 0.021
78. TTAAGAAATAACAATGCACACATTTAGGTCTTTTAT [CACACA_site3285]  9.53 ± 0.38
79. ATAATATATGAGCAATGTACATATTTCTCATTGCAC [XGTACX_site2253]  9.83 ± 0.78
80. CCCATGCATTTTTGCACACACATATATATATAAATA [CACACA_site1430]  9.87 ± 0.26
81. GTGCATATATGATATACACACAATATAATAGTATGT [CACACA_site2460]  9.88 ± 0.73
82. TTCTGTATATAGTGTGCACACAATTAAAAAAAAAAA [CACACA_site8400]  9.98 ± 0.27
83. TATATATATATATGGGTGCATTTTTTTGTCCATGTA [GTGCAC_site9868]  10 ± 0.34
84. ATTTATTTATATTTAGTGCAATACTATTTTTAAATA [GTGCAC_site9886]  10.6 ± 0.64
85. AGGTATATATTACAAGTGCACTGTAAAATTAAAATT  10.7 ± 0.22
86. TATGAAGTGCACAATACACACTAATTCTATATAAAT [CACACA_site7269]  11 ± 0.71
87. ATATATTATATTTAAGTGCATTAATTAAAATGCTTA [GTGCAC_site9403]  11.1 ± 0.73
88. GTTCCAGGCATTCGTGCGCACAAATAGAAACAATTA [GTGCAC_site9824]  11.15 ± 0.035
